Measured values from PMC4336329 (PLoS ONE, 2015).
Among all 310,000 compounds or so, about 2,200 (0.71%) showed an effect of 50% or more. Effects have a minus sign here. Some of the results follow.

Target: human ether-à-go-go-related gene (hERG) potassium channel (human, UniProt Q12809)
Test: primary screen, population patch clamp on CHO cells stably expressing hERG

Sequence of human ether-à-go-go-related gene (hERG) potassium channel (Q12809 whole entry, looked up): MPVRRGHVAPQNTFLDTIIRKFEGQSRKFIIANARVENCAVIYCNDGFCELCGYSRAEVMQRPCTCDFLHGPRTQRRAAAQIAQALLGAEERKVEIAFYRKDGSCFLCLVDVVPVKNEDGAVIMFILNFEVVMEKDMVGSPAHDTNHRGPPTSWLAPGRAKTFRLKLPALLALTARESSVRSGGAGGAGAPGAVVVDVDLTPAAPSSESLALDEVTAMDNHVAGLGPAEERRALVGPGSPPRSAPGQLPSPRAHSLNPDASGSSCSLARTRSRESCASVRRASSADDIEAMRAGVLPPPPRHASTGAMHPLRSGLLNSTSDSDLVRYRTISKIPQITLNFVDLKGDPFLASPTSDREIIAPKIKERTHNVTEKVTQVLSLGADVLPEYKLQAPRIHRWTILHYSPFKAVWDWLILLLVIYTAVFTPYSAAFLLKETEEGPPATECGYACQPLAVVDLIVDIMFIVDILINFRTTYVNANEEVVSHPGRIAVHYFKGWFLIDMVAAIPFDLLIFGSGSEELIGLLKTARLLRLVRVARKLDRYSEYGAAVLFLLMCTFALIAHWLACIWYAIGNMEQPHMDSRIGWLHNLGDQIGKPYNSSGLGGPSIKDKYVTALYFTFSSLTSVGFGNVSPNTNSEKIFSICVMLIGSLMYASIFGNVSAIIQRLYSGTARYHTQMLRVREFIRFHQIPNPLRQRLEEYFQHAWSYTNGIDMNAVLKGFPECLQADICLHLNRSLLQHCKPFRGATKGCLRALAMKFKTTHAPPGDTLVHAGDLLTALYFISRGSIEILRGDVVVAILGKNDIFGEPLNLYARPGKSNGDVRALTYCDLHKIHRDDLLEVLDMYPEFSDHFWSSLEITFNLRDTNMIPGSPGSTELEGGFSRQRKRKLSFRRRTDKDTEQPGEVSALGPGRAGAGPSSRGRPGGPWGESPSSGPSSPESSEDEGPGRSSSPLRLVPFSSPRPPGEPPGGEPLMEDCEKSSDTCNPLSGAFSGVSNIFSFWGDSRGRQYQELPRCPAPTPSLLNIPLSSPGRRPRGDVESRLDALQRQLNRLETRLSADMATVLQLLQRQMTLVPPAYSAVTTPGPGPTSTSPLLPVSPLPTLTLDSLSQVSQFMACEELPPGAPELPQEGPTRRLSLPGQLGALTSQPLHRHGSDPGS

| SMILES | hERG current change (%, negative = inhibition) at 1uM [%] |
| --- | --- |
| O=C(NCc1cccc(Cl)c1)c1ccc(N2CC3CC(C2)c2cccc(=O)n2C3)c(NC(=O)c2cccnc2)c1 (stereo not shown) | 2.48 |
| COc1cc(OC)cc(C(=O)Nc2cccc(N3CCCC3)c2)c1 | 7.97 |
| CC(=O)Nc1cccc(C(=O)OCC(=O)NNC(=O)c2cccs2)c1 | 14.5 |
| Cc1cc(-n2c(SCC(=O)Nc3ccc(F)c(F)c3)nc3n[nH]c(C)c3c2=N)ccc1Cl | 14.4 |
| CCN1CCCC1CNC(=O)C(=O)NC1CC1 (stereo not shown) | 15.3 |
| COc1ccc(CNC(=O)C2CCN(c3nccs3)CC2)cc1 | -3.73 |
| CC(c1cccs1)N(Cc1ccco1)C(=S)Nc1ccccc1Cl (stereo not shown) | 11.9 |
| C=CCOc1ccccc1/C=N/NC(=O)Cc1ccc(C)cc1 | 15.7 |
| Cc1ccc(NC(=O)N(CCC#N)Cc2ccccc2)cc1 | 9.67 |
| Cn1cccc1/C=N/n1c(-c2ccc(C(C)(C)C)cc2)n[nH]c1=S | 14.7 |
| COc1ccc(CCNC(=O)C(=O)NCC2CCCO2)cc1OC (stereo not shown) | 7.23 |
| Cc1cc(C(=O)Nc2ccc(N3CCOCC3)cc2)c2ccccc2n1 | 8.83 |
| CCOC(=O)c1c(NC(=O)CN2CCCCC2)sc(CN(C)C)c1-c1ccccc1 | 13.4 |
| O=C(Nc1ccc2nccnc2c1)c1cnccn1 | 17.8 |
| CN(C)S(=O)(=O)N(CC(=O)N1CCN(Cc2ccccc2)CC1)c1ccccc1 | 1.98 |
| COC(=O)c1ccc(C2CC(=O)Nc3cc(OC)c(OC)c(OC)c32)cc1 (stereo not shown) | -3.27 |
| O=C(CSc1nnc(-c2ccc(Cl)cc2)n1-c1ccc(Cl)cc1)N/N=C/c1ccco1 | -1.3 |
| CCN(C(=O)C12CC3CC(CC(C3)C1)C2)C1CCS(=O)(=O)C1 (stereo not shown) | 10.8 |
| COc1ccccc1C(=O)NC(CCSC)C(=O)NNC(=O)c1ccncc1 (stereo not shown) | 15.5 |
| Cc1ccc(OCC(=O)Nc2nnc(C3CCCO3)s2)c(Br)c1 (stereo not shown) | 13.4 |
| Cc1ccc(OCc2ccc(-c3ccccc3)cc2)c([N+](=O)[O-])n1 | 6.79 |
| Cn1c(=O)c2c(nc(NCC3CCCC(CN)C3)n2Cc2ccc(Cl)cc2Cl)n(C)c1=O (stereo not shown) | 13 |

| SMILES | hERG current change (%, negative = inhibition) at 1uM [%] |
| --- | --- |
| CC(C)n1c(N2CCN(C(=O)Nc3ccc(Cl)cc3)CC2)nc2ccccc21 | -31 |
| COc1ccc(N2CCCn3c2nc2c3c(=O)n(CCCc3ccccc3)c(=O)n2C)cc1 | -13.1 |
| Cc1ccc(-c2nc3ccccc3c(=O)n2-c2c(C)n(C)n(-c3ccccc3)c2=O)cc1 | 11.7 |
| O=C(COC(=O)c1ccc([N+](=O)[O-])s1)NC(=O)NCc1ccccc1 | 4.33 |
| O=C(Nc1ccccc1)N(Cc1cccnc1)Cc1ccco1 | 6.35 |
| COc1cc2c(cc1OC)C(C(C)C)=NC(C)(C)C2.Cl | 10.2 |
| Cc1c(CC(=O)NCC(=O)NCC(=O)O)c(=O)oc2c(C)c3oc4c(c3cc12)CCCC4 | 12.3 |
| O=C(O)COc1ccc2c(-c3ccccc3)cc(=O)oc2c1 | 8.66 |
| CCn1c(SCC#N)nc2ccccc2c1=O | 9.86 |
| COCc1cc(=O)[nH]c(SCCS(=O)(=O)c2ccc(Cl)cc2Cl)n1 | 12.9 |
| O=C(O)CN=C(NS(=O)(=O)c1ccccc1)c1ccccc1 | 0.367 |
| C/C(=N\NC(=O)COc1ccc(C)cc1Br)c1cc([N+](=O)[O-])cs1 | 8.53 |
| CCC(=O)NCCNC(=O)c1c(SC)nsc1SC | 1.89 |
| Cc1cccc(OCCCC(=O)NNC(=O)c2ccccn2)c1 | 2.36 |
| NC(=O)/C(=C\c1cccnc1)NC(=O)c1ccccc1 | 6.46 |
| COc1ccc(N2CC(C(=O)NCCc3ccc(Cl)cc3)CC2=O)cc1 (stereo not shown) | -2.44 |
| Br.N=c1n(N)c2ccccc2n1CC(=O)c1ccc(Br)cc1 | -2.41 |
| Cc1ccccc1C(=O)Nc1nnc(CC(=O)N/N=C/c2cn(Cc3ccccc3)c3ccccc23)s1 | 12 |
| CC(=O)Oc1ccc(-c2cc3ccccc3oc2=O)cc1 | 3.57 |
| COc1ccc2[nH]c(C(=O)N3CCN(c4ccccc4F)CC3)c(C)c2c1 | 17.1 |
| COCCCNS(=O)(=O)c1ccc2c(c1)CCN2C(C)=O | 11 |
